# In paper doi:10.1101/2025.01.14.633037:
# Results are given in words; binding and its absence hold for the method and conditions named. For part of these data: Binding seen in cells or lysates may run through a third protein. Some results given as binding are weak or reduced against the parent protein; the word gives no strength. Sequences can lack the tags named with a protein.
# Columns and labels:
# (TA)20 fused to mEos3.1 [1] = assay: FRET or BRET; DAmFRET: mEos3.1 fusions expressed in S. cerevisiae, galactose induction 20 hr with 100 uM MG132, partial photoconversion of mEos3.1, flow cytometry; AmFRET between copies of the same protein against its intracellular concentration (approximately 2 to 200 uM)
# (TA)20 fused to mEos3.1 [2] = assay: SDD-AGE; semidenaturing detergent-agarose gel electrophoresis of yeast lysates, 0.1% sarkosyl, mEos3.1 fluorescence imaged in the gel
# (YA)20 fused to mEos3.1 = assay: FRET or BRET; DAmFRET: mEos3.1 fusions expressed in S. cerevisiae, galactose induction 20 hr with 100 uM MG132, partial photoconversion of mEos3.1, flow cytometry; AmFRET between copies of the same protein against its intracellular concentration (approximately 2 to 200 uM)
# [3] = target: poly-YA with 10 repeats fused to mEos3.1; assay: as above
# [4] = target: poly-TA with 10 repeats fused to mEos3.1; assay: as above
# (GA)20 fused to mEos3.1 = assay: as above
binder,measurement,setting,value
TATATATATATATATATATATATATATATATATATATATA [(TA)20 fused to mEos3.1],binding,(TA)20 fused to mEos3.1 [1],binds
same,binding,(TA)20 fused to mEos3.1 [2],binds
YAYAYAYAYAYAYAYAYAYAYAYAYAYAYAYAYAYAYAYA [(YA)20 fused to mEos3.1],binding,(YA)20 fused to mEos3.1,binds
YAYAYAYAYAYAYAYAYAYA [poly-YA with 10 repeats fused to mEos3.1],binding,[3],binds
TATATATATATATATATATA [poly-TA with 10 repeats fused to mEos3.1],binding,[4],binds
GAGAGAGAGAGAGAGAGAGAGAGAGAGAGAGAGAGAGAGA [(GA)20 fused to mEos3.1],binding,(GA)20 fused to mEos3.1,no binding (tested: range probed approximately 2 to 200 μM)
